# The other results are listed elsewhere or left out. Values were computed here from the reads of four pooled replicates and scatter widely.
# Biological target: T1, Pho4 (S. cerevisiae) (UniProt P07270)
# T1 sequence: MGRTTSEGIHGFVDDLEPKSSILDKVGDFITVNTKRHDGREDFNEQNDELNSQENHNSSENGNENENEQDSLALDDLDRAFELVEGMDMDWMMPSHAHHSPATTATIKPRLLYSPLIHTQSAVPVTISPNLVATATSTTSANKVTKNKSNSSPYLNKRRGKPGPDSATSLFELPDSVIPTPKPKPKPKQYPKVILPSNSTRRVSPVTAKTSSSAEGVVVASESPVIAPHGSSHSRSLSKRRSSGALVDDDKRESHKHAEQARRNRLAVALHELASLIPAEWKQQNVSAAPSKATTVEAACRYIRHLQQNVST
# Assay: relative binding free energy (BET-seq); higher = weaker binding
# Settings: reference: library average
row,Sequence,relative binding free energy [kcal/mol]
1,ATGGACACGTGTATTG,-0.02
2,AAAGGCACGTGGGCGT,-0.38
3,TATCTCACGTGAAGGT,0.53
4,TTGAGCACGTGAGGTC,0.28
5,GATGTCACGTGTTTTA,0.09
6,TAGATCACGTGGTTGT,0.04
7,TAGGTCACGTGAGGGG,0.2
8,CTGGTCACGTGCTGTG,-0.06
9,TAGGCCACGTGACGGT,0.04
10,GTTGGCACGTGACTTA,-0.02
11,GGTGGCACGTGGGGAA,-0.11
12,AGTACCACGTGGGAGG,-0.02
13,TGGAACACGTGTTATG,-0.03
14,AAAGTCACGTGTAAGT,0.35
15,TTTCGCACGTGGGGGA,-0.27
16,ACTTGCACGTGCGGGG,-0.08
17,ATGTTCACGTGGGGCT,0.16
18,CTTGTCACGTGTCGGT,0.08
19,TTGGGCACGTGCACGG,-0.22
20,GAGCGCACGTGTGGGC,0.02
21,GGGCTCACGTGTGTTA,0.11
22,TGAAGCACGTGGTGTG,-0.2
23,GTGTGCACGTGTATGT,0.05
24,ATAATCACGTGAGTAG,0.4
25,TGATCCACGTGGTTGA,-0.06
26,GGGGGCACGTGAAGCA,0.04

row,Sequence,relative binding free energy [kcal/mol]
1,ATGTACACGTGTTTGC,-0.01
2,CGGGGCACGTGGCCGG,-0.31
3,ATGGGCACGTGCGATT,0.01
4,GGGGTCACGTGATTGT,0.36
5,GGTCTCACGTGGTCAG,0.19
6,TGATCCACGTGTGTGT,0.06
7,ATGAGCACGTGATATA,0.17
8,GGGACCACGTGTCTGG,0.09
9,TCGGGCACGTGTAATG,-0.05
10,TATGTCACGTGTATGT,0.07
11,GGCAACACGTGTGTGA,0.13
12,GAATTCACGTGAAGGG,0.46
13,GGAGGCACGTGTCGTT,-0.05
14,TTACTCACGTGTATTT,0.25
15,GGGTCCACGTGTTCGG,-0.04
16,GGCAACACGTGCTGGG,-0.04
17,GTTTTCACGTGCGAGT,0.35
18,GTGGGCACGTGAATAG,0.21
19,TGTTTCACGTGCGCTT,0.09
20,AATGACACGTGGGTCG,0.01
21,GTCAGCACGTGTTGAT,0.05
22,GGTTTCACGTGTGACG,0.37
23,TGGTTCACGTGTTGCA,0.16
24,CATCGCACGTGAGGGT,0.17
25,TGGTGCACGTGGGACT,-0.2
26,AATGTCACGTGTGGGT,0.15

row,Sequence,relative binding free energy [kcal/mol]
1,ATTGGCACGTGAGTCT,0.02
2,CGGTGCACGTGAGGTC,0.24
3,CGGACCACGTGGGGGC,-0.13
4,GTGCACACGTGTAAGT,0.04
5,CATTGCACGTGGGGTT,-0.09
6,CGGTTCACGTGGTCTT,0.34
7,AGTTTCACGTGGCGTA,0.17
8,ATGTGCACGTGAGGTT,0.26
9,TTTAGCACGTGTCCGG,-0.08
10,GTGGGCACGTGATAAG,0.04
11,TTGGACACGTGGGACG,-0.01
12,ATAGGCACGTGTGAAG,-0.02
13,ACGTTCACGTGAGTTT,0.32
14,GAGGACACGTGGTGTA,0.03
15,TCTGGCACGTGAATGT,0.13
16,GTAGTCACGTGGATGA,0.18
17,TTGAACACGTGTGGAC,0.23
18,TTGGGCACGTGACTGT,-0.09
19,AGTGGCACGTGACAGT,-0.17
20,GTAGACACGTGGGGTT,0.04
21,ATATTCACGTGTGTGA,0.17
22,AGTCTCACGTGGCGGA,0.16
23,GGTTGCACGTGGTGGT,0.06
24,AACTTCACGTGTAGTT,0.29
25,TGTTACACGTGCGAGG,-0.08
26,AAGATCACGTGTTGAT,0.15

row,Sequence,relative binding free energy [kcal/mol]
1,TGTATCACGTGCGATG,0.24
2,TGTTGCACGTGGGAAG,-0.18
3,GCAGGCACGTGTGGGC,0.03
4,TTGAACACGTGTTACT,0.15
5,GGGATCACGTGTGAAG,0.25
6,TTGAACACGTGTGCGG,0.13
7,GATAGCACGTGTATTT,0.05
8,TTCGTCACGTGTGGGC,0.31
9,AATTTCACGTGAGTTC,0.47
10,GTATGCACGTGGACGG,-0.03
11,TGTATCACGTGTTTCA,0.07
12,TATTACACGTGTTATT,0.02
13,CTGAGCACGTGTAGGG,-0.17
14,CTGAGCACGTGGAGGG,-0.21
15,AGGACCACGTGTTTGT,0
16,ATCAGCACGTGTTGTG,-0.04
17,GGTGTCACGTGAATGC,0.32
18,GGATACACGTGTGTTG,0.13
19,GATTTCACGTGCGTGT,0.21
20,GGGTCCACGTGGATTT,0.17
21,AGGTTCACGTGTAGTT,0.36
22,CAACGCACGTGGGGGG,-0.33
23,AGAAACACGTGGGTAG,-0.18
24,GTTGACACGTGTACTT,0.03
25,GTTGGCACGTGGGTTG,-0.19
26,AGGTTCACGTGTCCGT,0.18

row,Sequence,relative binding free energy [kcal/mol]
1,AATGTCACGTGTGAAT,0.1
2,GAATGCACGTGTGTGG,0.13
3,ATTAGCACGTGTTTTT,0.04
4,GTGGGCACGTGGAGAA,-0.08
5,CTTGTCACGTGTATAT,0.13
6,TGGTACACGTGTTATT,0.17
7,TAAGACACGTGAAGGT,0.17
8,GTGTTCACGTGAGTGT,0.46
9,TCAGTCACGTGAATGT,0.22
10,GTACTCACGTGGGAGG,0.15
11,GGTGCCACGTGGGGAT,-0.15
12,AATATCACGTGGTATT,-0.01
13,TTCGGCACGTGAGCTG,0.09
14,AGGTACACGTGAGTGG,0.3
15,AACGGCACGTGAGTGT,0.18
16,GGTCGCACGTGACAGG,0.09
17,GCGTACACGTGGTTAG,0.09
18,GTCTGCACGTGGGGTC,-0.16
19,TAATGCACGTGGTAGG,-0.07
20,AGTCTCACGTGGTTGG,0.18
21,AGGTCCACGTGATGGA,0.17
22,CGTAGCACGTGGATGA,0
23,AGTGGCACGTGAATGT,0.09
24,TGGGCCACGTGGTAAT,0
25,AGCCGCACGTGTTTGG,0.03
26,CGTGGCACGTGTAATA,0.03

row,Sequence,relative binding free energy [kcal/mol]
1,TGGTGCACGTGGCTCG,-0.09
2,AGGTGCACGTGTTCAG,-0.03
3,TCGTCCACGTGGGGGG,-0.15
4,TTGTACACGTGATGTG,0.23
5,TCTAGCACGTGTTTGT,-0.02
6,CGAGGCACGTGGGTTG,-0.28
7,AGATTCACGTGTTGTT,0.15
8,TTTTGCACGTGCTGTA,-0.14
9,TTTTCCACGTGTTTGG,0.13
10,TAATACACGTGGGGTA,-0.1
11,TCGGGCACGTGGGGGT,-0.16
12,ATTGCCACGTGAATTG,0.26
13,TGATGCACGTGGGCGT,-0.11
14,CCTTGCACGTGTGTTG,0.01
15,GTCGGCACGTGTTGAG,0.08
16,TATATCACGTGTGATA,0.24
17,TTTGCCACGTGGTTCT,-0.1
18,GTGTGCACGTGCCAGT,-0.07
19,TAATTCACGTGTTTTG,0.27
20,AGAGTCACGTGTCTGG,0.19
21,TTTAACACGTGGTTTA,-0.07
22,ATGATCACGTGTTGTA,0.11
23,GGGTGCACGTGTCACG,-0.06
24,GGCAACACGTGTTGGG,0.06
25,TTACTCACGTGGGGAG,-0.02
26,ATGGTCACGTGTAGAC,0.15

row,Sequence,relative binding free energy [kcal/mol]
1,TGGGTCACGTGACATA,0.19
2,TTGCTCACGTGCATGT,0.12
3,GGAGGCACGTGGGTTT,-0.13
4,GTAGGCACGTGGGAAC,-0.06
5,TGTCACACGTGTTGGA,0.12
6,TTCGGCACGTGGAGAG,0.01
7,TAAGACACGTGGTTTA,-0.04
8,GATTGCACGTGCTGTA,0.07
9,AGGGTCACGTGTGAGA,0.24
10,CGGGTCACGTGCGTAG,0.19
11,ATGGCCACGTGGGAAT,-0.05
12,GGTATCACGTGGTACG,0.1
13,TCTAGCACGTGGAGGG,-0.04
14,TCAAGCACGTGATGGA,0.05
15,AGGTTCACGTGGGAGG,0.19
16,TAGGGCACGTGTGTTT,-0.01
17,GGGTTCACGTGGTGTG,0.28
18,GGGAACACGTGTATGA,0.07
19,GGTTGCACGTGGGGTA,-0.01
20,TGGAGCACGTGACTGT,-0.02
21,TTTTTCACGTGGCTGT,0.17
22,TGTGTCACGTGGGGCT,0.07
23,GGGCCCACGTGGCGGT,-0.11
24,AGAATCACGTGTGTAA,0.29
25,AATGCCACGTGGGTGA,-0.27
26,TTGTACACGTGGGACT,0.07

row,Sequence,relative binding free energy [kcal/mol]
1,ATTTACACGTGCATGT,0.17
2,GGGGACACGTGATAAG,0.24
3,TCGCGCACGTGGGGTT,-0.26
4,GCAAGCACGTGTGTGG,0
5,GTGAACACGTGTTGTT,0.03
6,GGTGGCACGTGATAAT,0.21
7,TTGTGCACGTGTTGGA,0.09
8,TTGTTCACGTGTTAGA,0.34
9,AGGCACACGTGACGGT,0.23
10,TGGGGCACGTGGTGCG,-0.17
11,TCTTACACGTGATGGG,0.27
12,GGTGACACGTGGATGC,0.08
13,TGTGCCACGTGTCGAG,-0.01
14,GGGAGCACGTGAGGGC,0.16
15,AGGATCACGTGGAAAG,0.13
16,ATTAGCACGTGGAATA,0.07
17,ACGTTCACGTGGTTTA,0.11
18,AGCGGCACGTGTCGGG,-0.05
19,ACGGGCACGTGTTTTG,0.02
20,AGTTTCACGTGTTCTG,0.36
21,CGTGGCACGTGTGTCT,-0.09
22,TGTCGCACGTGAGGTC,0.06
23,GGTGTCACGTGGCATG,0.07
24,GGGTGCACGTGCCGTT,-0.06
25,TCTGGCACGTGGGAGC,-0.19
26,GATTTCACGTGTCTCG,0.52

row,Sequence,relative binding free energy [kcal/mol]
1,CTGATCACGTGGTTAG,0.12
2,TAGAGCACGTGGAGGG,-0.04
3,AGCTGCACGTGATGTT,-0.09
4,AGTACCACGTGAAGTT,0.29
5,TGAGGCACGTGGTGAT,-0.12
6,TGTGCCACGTGGTGTG,-0.16
7,TGGGGCACGTGTACAT,-0.06
8,TGACGCACGTGGGGCA,-0.32
9,GCTTTCACGTGTCGTT,0.21
10,GAGCTCACGTGGTTGG,0.06
11,GTTGGCACGTGGACGA,-0.06
12,TTGTCCACGTGAGGAT,0.23
13,GATGTCACGTGTTTGA,0.22
14,CCGTTCACGTGTAGGT,0.16
15,CTTAACACGTGGATGG,0
16,CGTTTCACGTGAGTTG,0.44
17,TTTAACACGTGGGATC,0
18,TAATTCACGTGATTAG,0.24
19,TGGAGCACGTGGTTGC,-0.05
20,TCAGTCACGTGGATTT,0.13
21,TATATCACGTGGGGGA,-0.04
22,GGTAACACGTGAGCGT,0.06
